Assay results taken from ChEMBL document CHEMBL5308541, “MAIP: An Open-Source Tool to Enrich High-Throughput Screening Output and Identify Novel, Druglike Molecules with Antimalarial Activity” (ACS Med Chem Lett, 2023).
Hit rate of the full screen: of about 150,000 compounds, about 540 (0.36%) showed an effect of 50% or more. Some of the results follow.

system: Plasmodium falciparum; test: Primary screen in NF54 nanoGlo assay, in single point, at 2uM, 72h; a lower Z score goes with more inhibition; type: functional, Erythrocyte; details: timepoint 72 hour

SMILES | % Inhibition | Z score
FC(F)(F)c1ccc([C@H](CNc2cc(N3CCOCC3)ncn2)N2CCOCC2)cc1 | 7% | -1.23
CC(=O)N1CCO[C@H](C(=O)Nc2cnccc2N2CCN(C)CC2)C1 | -7% | 1.25
Cc1c(C(=O)N2CCN(CC(C)C)C(=O)[C@@H]2C)n(C)c2c(C)cccc12 | 4% | -0.81
O=C(NCCN1CC[C@H](O)C1)c1cc(-c2ccc(OC(F)(F)F)cc2)[nH]n1 | 1% | -0.2
Cc1ccc(CNC(=O)NC(c2ccc(F)cc2)C2CCCO2)cn1 (centres undefined) | -5% | 0.83
Cc1ccc(-c2nc(CC[C@H](C)N3CCCC3)n(CC(=O)O)n2)o1 | 0% | -0.09
COc1cc(CNCCCN2CCCC2=O)ccc1OC[C@@H](O)CN(C)C1CCCCC1 | -2% | 0.37
CCCc1nc(N2CC[C@@]3(CCCN(C)C3=O)C2)no1 | 2% | -0.43
CN1CCN(C[C@H]2CCCN(CC(C)(C)N3CCOCC3)C2)CC1 | -20% | 3.47
COc1ccc2occ(C(=O)N(C[C@H](C)C#N)C3CC3)c2c1 | 1% | -0.09
COCCN1CCN(CC(O)CN2CCc3ccccc3C2)CC1C (centres undefined) | -1% | 0.15
CCN(C(=O)c1cc2ccc(OC)cc2[nH]1)C1CCN(C(C)c2ccccc2)C1 (centres undefined) | 6% | -0.98
Cc1cnccc1NCCNC(=O)c1nc(-c2ccccc2)[nH]c1C | 12% | -2.67
O=C(c1cc(O)c2cccc(F)c2n1)N1CCC(N2CCN(CCO)CC2)CC1 | -1% | 0.15
CCCC(=O)c1cn(CC(=O)N2C[C@@H]3CCCN3C(=O)[C@@H]2C)c2ccccc12 | 0% | 0
Cc1cnn([C@H]2CCCNC2)c1C(=O)NC1CCC(N2CCCCC2)CC1 (some centres undefined) | -5% | 0.81
CN1CCN(c2ccc(CNC(=O)C3CCN(c4nccnc4Oc4ccccc4)CC3)cc2)CC1 | -4% | 0.62
CN1CCC(N2CCC(NCc3cccc4nsnc34)CC2)CC1 | 14% | -2.08
Cc1cc(NCC(=O)NC(C)C)c2cc(OC(F)(F)F)ccc2n1 | -11% | 1.9
Cn1cccc1C(=O)N1CCC(CN(CCN2CCCCC2)C2CCOCC2)CC1 | -5% | 0.79
COc1ccnc(NCCCc2nc(-c3ccncc3)cs2)n1 | 69% | -13.68
Cc1cccc(Cl)c1S(=O)(=O)NC[C@@H](C(C)C)N1CCCC1 | -2% | 0.33
